The values that follow come from PubChem BioAssay AID1347073 (National Center for Advancing Translational Sciences (NCATS), 2019).

In all, about 45,000 compounds went through this assay and about 200 (0.44%) were called active. Inconclusive results (about 7%) are left out. Calls follow the shape of the dose curve; as a rule, active = well fitted activation curve with a large enough effect; inconclusive = small, poorly fitted or top-dose-only effect; inactive = no such curve, though single readings can be large or run the other way. The list shows a part of the results.

The test can be described thus: qHTS of TDP-43 Inhibitors: NCGC Sytravon Library Screen. Also: 0% is about no effect; nearly all actives have a fitted effect of over 55% in size. Particulars: yeast TDP-43 toxicity rescue, BacTiter-Glo growth, 24 h; series mostly up to 46.1 µM; growth rescue (activation): at the top concentration. In short, it runs like this:
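TDP-43-expressing yeast, pregrown in raffinose, seeded at OD600 0.02 in galactose medium with compound for 24 hr at 30 deg C. Growth read by BacTiter-Glo luminescence, so rescue of toxicity appears as activation.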
For orientation: qHTS replaces the single test concentration by a dilution series.
Consider `Nc1nonc1-n1nnc(C(=O)N/N=C/c2cc(Br)ccc2O)c1CNc1ccccc1`, for which the “growth rescue (activation)” value is inactive: 5.58%. With `O=C1CN(S(=O)(=O)c2cccc(Br)c2)CCN1`, the “growth rescue (activation)” value was inactive: -1.66%. Take `CC1CCCC(NC(=O)COC(=O)COc2cccc(F)c2)C1C` (configuration not stated): the “growth rescue (activation)” value was inactive: -1.64%. Take `O=C(Nc1ccccc1C(=O)O)c1cc(S(=O)(=O)Nc2ccccc2)ccc1Cl`: the “growth rescue (activation)” value was inactive: -7.96%. The figure for `COCCN(C(=O)CSc1ccc2c(c1)OCCO2)c1c(N)n(CC(C)C)c(=O)[nH]c1=O` is inactive: 11.6%; for `O=C(COC(=O)c1cc(-c2cccc(Br)c2)nc2ccccc12)NCC1CCCO1` (configuration not stated) it is inactive: -13%.

In the case of `CSc1ccccc1NC(=O)Nc1ccccc1Cl`, the “growth rescue (activation)” value was inactive: 1.52%. The figure for `Cc1ccccc1Oc1nc2ccccn2c(=O)c1/C=C(\C#N)C(=O)Nc1c(C)n(C)n(-c2ccccc2)c1=O` is inactive: 0.646%; for `NS(=O)(=O)c1cccc(NC(=O)c2cccc(S(=O)(=O)N3CCCCCC3)c2)c1` it is inactive: 28.6%; for `COc1ccc(C(CNc2ncnc3sccc23)N(C)C)cc1OC` (configuration not stated) it is inactive: 17.5%. For `C=CCn1c(=O)[nH]c2cc(C(=O)N3CC=C(c4ccccc4)CC3)ccc2c1=O`, the “growth rescue (activation)” value is inactive: -3.18%.

Regarding `CCn1c(=O)c(=O)[nH]c2cc(C(=O)NCC3CCCCC3)ccc21`, the “growth rescue (activation)” value is inactive: 11.3%.

As for `CC(C)CN(C(=O)c1ccc(F)cc1F)c1c(N)n(CC(C)C)c(=O)[nH]c1=O`, the “growth rescue (activation)” value was inactive: -1.9%. With `Cc1ccc(CN2C3CCCC2CC(NC(=O)c2ccc(C)cc2)C3)cc1` (configuration not stated) the figure was inactive: 7.33%. With `CC(C)CNC(=O)COC(=O)/C=C/c1ccco1` the figure was inactive: 9.37%; with `Cc1cc(C(=O)O)cc(S(=O)(=O)Nc2c(C)nn(C)c2C)c1C`, inactive: 16.1%. With `CCOC(=O)/C(=C/C=C1\Sc2ccccc2N1CC)C(C)=O` the figure was inactive: 28.9%.

`CCN(C(=O)CSc1nc(-c2ccccc2)c(-c2ccccc2)[nH]1)C1CCS(=O)(=O)C1` (configuration not stated): the “growth rescue (activation)” value is inactive: 3.34%. As to `O=C(CCS(=O)(=O)c1ccc(Br)cc1)Nc1ccc(Cl)cc1F`, the “growth rescue (activation)” value is inactive: 18.1%. In the case of `Cc1cc(C)c2oc(C(=O)N(Cc3ccccc3)c3ccccn3)cc(=O)c2c1`, the “growth rescue (activation)” value is inactive: 6.64%.

Turning to `OC[C@@H]1CN(Cc2ccncc2)C[C@H](n2cnc3c(N4CCN(c5ccccc5)CC4)ncnc32)O1`, the “growth rescue (activation)” value is inactive: -4%.

With `Cc1cc(O)cc(O)c1-c1onc(C(F)(F)F)c1-c1cscn1`, the “growth rescue (activation)” value is inactive: 7.79%. With `OC(c1cccnc1)c1nc(-c2cccc(F)c2)cs1` (configuration not stated) the figure was inactive: 13.4%; with `COc1ccc(NS(=O)(=O)c2cccc(C(=O)N/N=C/c3ccccc3OC)c2)cc1`, inactive: 7.18%; with `O=C(COC(=O)CC1CC2CCC1C2)Nc1ccccc1[N+](=O)[O-]` (configuration not stated), inactive: -27.4%. Take `CCCNC(=O)C1CCN(S(=O)(=O)c2cccc3nonc23)CC1`: the “growth rescue (activation)” value is inactive: -0.796%. With `COc1ccc(NC(=O)Cn2nnc(-c3nc(-c4ccncc4)no3)c2N)cc1OC` the figure was inactive: 12.2%; with `COc1cc(NC(=S)NCCN2CCOCC2)cc(OC)c1`, inactive: 12.4%; with `COc1ccc(CNC(=O)c2nn(-c3ccccc3)cc2OC)cc1`, inactive: -1.76%. With `CCn1cc(CN2CCC(n3nccc3NC(=O)c3cccc(F)c3)CC2)c(C)n1`, the “growth rescue (activation)” value was inactive: -8.04%. With `CC(=O)N1N=C(c2ccc(Cl)cc2)OC1(C)C` the figure was inactive: 1.4%; with `Cc1cc(C(=O)N2CCC2(C)C(=O)NCC(C)(C)C)nn1C` (configuration not stated), inactive: 12%; with `CC1CCN(C(=O)c2ccc(NC(=O)c3cccs3)cc2)CC1`, inactive: 14.5%. As to `CC(=O)c1cccc(NC(=O)c2cc(-c3cccs3)on2)c1`, the “growth rescue (activation)” value is inactive: -3.24%. The figure for `NC(=NC(=O)c1ccccc1)N1N=CCC1c1ccccc1` (configuration not stated) is inactive: 13.1%; for `Cc1nc2ccccc2c(=O)n1/N=C/c1cccs1` it is inactive: 10.2%. With `Clc1ccc(Sc2cc(N3CCOCC3)nc(-c3ccccc3)n2)cc1` the figure was inactive: -2.08%. As for `O=C(Cn1cc(C(F)(F)F)ccc1=O)N/N=C/c1ccc(Cl)cc1Cl`, the “growth rescue (activation)” value is inactive: 1.29%. The figure for `CC1(C)OC(=O)C(=CNCCc2ccc(O)cc2)C(=O)O1` is inactive: -1.25%; for `O=C(Nc1nccs1)C1CC(=O)N(c2ccc(F)cc2)C1` (configuration not stated) it is inactive: -2.28%. The figure for `O=C(NCC1CCCN(C(=O)c2cscn2)C1)c1ccc(-c2ccccc2)cc1` (configuration not stated) is inactive: 5.36%. With `COC(=O)COc1ccc(S(=O)(=O)N2CCCCCC2)cc1C` the figure was inactive: 25%; with `COc1cc(C(=O)COC(=O)c2cccs2)cc(OC)c1OC`, inactive: 4.76%; with `c1csc(-c2noc(CN3CCN4CCCC4C3)n2)c1` (configuration not stated), inactive: 0.7%.

Regarding `CC(C)N(C)c1ncnc2c1ncn2[C@H]1CN(Cc2cccs2)C[C@@H](CO)O1`, the “growth rescue (activation)” value is inactive: 2.23%. The figure for `COc1cccc(CNC(=O)CCc2c(C)nc3c4c(C)cc(C)nc4nn3c2C)c1` is inactive: 0.0353%. On to `Cc1ccc(C)c(CN2C(=O)c3ccccc3S(=O)(=O)c3ccc(C(=O)NCCc4ccc(Cl)cc4)cc32)c1`, for which the “growth rescue (activation)” value was inactive: 3.81%. With `O=C(/C=C/c1ccco1)N1CCN(c2ncccn2)CC1` the figure was inactive: 21.3%; with `CC(C)N(C(=O)Cn1c(SCC(=O)NC2CC2)nc2ccccc21)C(C)C`, inactive: 4.4%; with `Cc1ccccc1Cn1nc(C)c(NC(=O)c2cc3nc(-c4ccco4)cc(C(F)(F)F)n3n2)c1C`, inactive: -8.03%. With `O=C(CSc1nnc(NC(=O)c2c(F)cccc2F)s1)NC1CCCC1` the figure was inactive: -8.43%; with `Cc1ccc(NC(=O)CN(C)C(=O)CSc2nccn2C)cc1`, inactive: -1.63%.

For the compound `CCc1ccc2c(c1)NC(=O)C2(C)Cc1ccc(Cl)cc1` (configuration not stated), the “growth rescue (activation)” value is inactive: 15.5%. `COc1ncccc1C(=O)N1CCC(n2nccc2NC(=O)CC(C)C)CC1`: the “growth rescue (activation)” value was inactive: 3.68%. Turning to `COc1ccccc1NC(=O)CN1CCC(c2nc3ccc(C)cc3[nH]2)CC1`, the “growth rescue (activation)” value is inactive: -0.338%. With `Cc1cc(C)c(S(C)(=O)=O)c(=O)[nH]1` the figure was inactive: -14.6%.

For `COc1ccc(NS(=O)(=O)c2cc(N=Nc3c(O)[nH]c(=O)[nH]c3=O)ccc2Cl)cc1`, the “growth rescue (activation)” value is inactive: 0.529%. The figure for `CCOC(=O)C1CCCN(C(=O)c2ccc([N+](=O)[O-])c(C)c2)C1` (configuration not stated) is inactive: -11.8%. Take `Cc1cc(NCc2ccc(Cl)cc2)n2cnnc2n1`: the “growth rescue (activation)” value is inactive: 2.01%. `COc1ccc(-c2nc3c(c(=O)n(C)c(=O)n3C)n2CC2CC(c3ccccc3)=NO2)cc1OC` (configuration not stated): the “growth rescue (activation)” value is inactive: -4.32%. Take `C/C(=N\NC(=O)c1ccc2c(c1)OCO2)c1ccc2c(c1)OCO2`: the “growth rescue (activation)” value was inactive: 2.73%.

With `c1ccc(-c2cn3c4c(sc3n2)CCCC4)cc1`, the “growth rescue (activation)” value was inactive: -18.8%.

Turning to `CC(=O)c1ccc(NC(=O)COC(=O)CCN2C(=O)c3cccc([N+](=O)[O-])c3C2=O)cc1`, the “growth rescue (activation)” value is inactive: -0.781%. The figure for `CCn1c(CC(=O)Nc2ccc(OC)cc2)nnc1SCC(=O)N1CCOCC1` is inactive: 4.94%; for `CCCC(=O)N1CCC1(C)C(=O)Nc1ccccc1C(C)(C)C` (configuration not stated) it is inactive: -4.59%. On to `COc1ccc(OCC(=O)NCCNC(=O)c2cccnc2)cc1`, for which the “growth rescue (activation)” value is inactive: 3.73%. `CCOC(=O)N1CCN(S(=O)(=O)c2ccc3c(c2)NC(=O)CO3)CC1`: the “growth rescue (activation)” value is inactive: 2.18%.
